{"source": "the supplement of paper PMC3334620", "note": "Whole data set: some 33,000 sequences, median “E-score (-0.5 to 0.5)” near -0.043, cut for the highest 2% near 0.37. This is one part of the list."}
{"target": "T1, Upc2 (UniProt Q12151)", "T1 sequence": "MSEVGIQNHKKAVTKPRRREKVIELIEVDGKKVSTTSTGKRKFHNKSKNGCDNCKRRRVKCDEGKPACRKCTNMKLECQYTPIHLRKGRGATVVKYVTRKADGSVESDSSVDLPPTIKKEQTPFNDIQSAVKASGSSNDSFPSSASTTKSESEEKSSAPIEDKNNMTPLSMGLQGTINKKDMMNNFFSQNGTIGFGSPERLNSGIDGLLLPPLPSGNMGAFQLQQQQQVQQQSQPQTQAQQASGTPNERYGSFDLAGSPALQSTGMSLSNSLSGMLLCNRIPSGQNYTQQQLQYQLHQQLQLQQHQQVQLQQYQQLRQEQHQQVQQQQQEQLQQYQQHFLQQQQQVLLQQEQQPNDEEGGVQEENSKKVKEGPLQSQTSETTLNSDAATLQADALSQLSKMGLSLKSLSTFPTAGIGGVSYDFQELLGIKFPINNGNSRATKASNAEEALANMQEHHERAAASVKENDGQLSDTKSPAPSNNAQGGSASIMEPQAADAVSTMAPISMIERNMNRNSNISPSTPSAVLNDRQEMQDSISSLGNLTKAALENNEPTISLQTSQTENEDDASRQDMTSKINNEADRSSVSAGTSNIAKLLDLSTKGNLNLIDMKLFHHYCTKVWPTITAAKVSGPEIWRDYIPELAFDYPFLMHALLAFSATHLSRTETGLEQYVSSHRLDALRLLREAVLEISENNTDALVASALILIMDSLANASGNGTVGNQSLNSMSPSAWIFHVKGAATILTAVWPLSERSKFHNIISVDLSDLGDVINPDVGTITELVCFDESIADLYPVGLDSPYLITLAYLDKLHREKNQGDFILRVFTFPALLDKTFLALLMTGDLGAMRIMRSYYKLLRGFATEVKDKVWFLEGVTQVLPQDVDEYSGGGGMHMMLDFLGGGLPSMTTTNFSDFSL", "assay": "PBM E-score (8-mer binding enrichment) (E-score (-0.5 to 0.5)); higher = stronger / more preferred TF binding; most listed sequences are background and not binding sites", "conditions": "protein concentration: 200 nM; construct: GST-full length", "procedure,_shortened": "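PURExpress in vitro transcription/translation supplied GST-tagged yeast transcription factors, either full-length or DNA-binding domain. Applied at about 100-200 nM to universal all-10-mer Agilent arrays double-stranded by primer extension, the bound protein was detected with fluorescent anti-GST. E-scores, modified Wilcoxon-Mann-Whitney statistics, were given by the Universal PBM Analysis Suite to ungapped eight-base words pooled with their reverse complements after masliner normalisation.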"}
{"sequence": "CGGTGGCC", "PBM E-score": -0.271}
{"sequence": "AAAAACTG", "PBM E-score": -0.0494}
{"sequence": "CGGCAGGA", "PBM E-score": -0.0626}
{"sequence": "GAGGCTAA", "PBM E-score": -0.168}
{"sequence": "CAACCTCA", "PBM E-score": -0.0655}
{"sequence": "CGGAAGAA", "PBM E-score": 0.0599}
{"sequence": "CTACTGCC", "PBM E-score": -0.0977}
{"sequence": "GCCCTTGA", "PBM E-score": -0.189}
{"sequence": "CCCCACTA", "PBM E-score": -0.188}
{"sequence": "CAGCATAC", "PBM E-score": 0.0244}
{"sequence": "GGGAATGA", "PBM E-score": -0.173}
{"sequence": "GAGGTGCC", "PBM E-score": -0.206}
{"sequence": "GCCACTTA", "PBM E-score": -0.13}
{"sequence": "ATCTATTG", "PBM E-score": 0.0555}
{"sequence": "TACGACTA", "PBM E-score": 0.437}
{"sequence": "AGACGCGG", "PBM E-score": -0.066}
{"sequence": "GAGTTACC", "PBM E-score": -0.0363}
{"sequence": "ACGGTTCA", "PBM E-score": 0.0683}
{"sequence": "ACGGGCTC", "PBM E-score": 0.128}
{"sequence": "AGGCACAA", "PBM E-score": -0.241}
{"sequence": "AGAGATCT", "PBM E-score": 0.0545}
{"sequence": "GAACCGTC", "PBM E-score": -0.0537}
{"sequence": "CAGAGCTC", "PBM E-score": -0.109}
{"sequence": "GCGCGACA", "PBM E-score": 0.00528}
{"sequence": "GCACCAAC", "PBM E-score": -0.142}
{"sequence": "GGAGAACA", "PBM E-score": -0.0355}
{"sequence": "CAAACCTG", "PBM E-score": -0.0155}
{"sequence": "CTAGCAAG", "PBM E-score": -0.201}
{"sequence": "CAGAGAGA", "PBM E-score": -0.0908}
{"sequence": "ATAACTGG", "PBM E-score": 0.00433}
{"sequence": "GAAGGAGA", "PBM E-score": -0.032}
{"sequence": "AAATCCAA", "PBM E-score": 0.00477}
{"sequence": "ATGGAGGA", "PBM E-score": 0.0394}
{"sequence": "AGGGCGCA", "PBM E-score": -0.162}
{"sequence": "CTGAGCGA", "PBM E-score": 0.267}
{"sequence": "GAGGCCTA", "PBM E-score": -0.0877}
{"sequence": "CACGTATC", "PBM E-score": 0.132}
{"sequence": "CAGGGTCA", "PBM E-score": -0.065}
{"sequence": "ACAATCCG", "PBM E-score": 0.0882}
{"sequence": "GGTAAAAC", "PBM E-score": 0.0926}
{"sequence": "CCTTGTGA", "PBM E-score": -0.124}
{"sequence": "CGCTGCCC", "PBM E-score": -0.178}
{"sequence": "CGGTTTCA", "PBM E-score": -0.101}
{"sequence": "CAAGGTGG", "PBM E-score": -0.0983}
{"sequence": "CACAACGA", "PBM E-score": 0.282}
{"sequence": "CAGTGCCG", "PBM E-score": -0.0125}
{"sequence": "GCAGATTA", "PBM E-score": -0.139}
{"sequence": "AATTATTC", "PBM E-score": 0.0677}
{"sequence": "CGGGGTAG", "PBM E-score": -0.0778}
{"sequence": "AGCTAAGG", "PBM E-score": -0.435}
{"sequence": "ACCACCAC", "PBM E-score": -0.233}
{"sequence": "AGAAATTC", "PBM E-score": 0.00366}
{"sequence": "AAATCGCA", "PBM E-score": -0.0494}
{"sequence": "AGTCTGAA", "PBM E-score": -0.0807}
{"sequence": "ACGCCTTG", "PBM E-score": -0.0944}
{"sequence": "AAAGCTTT", "PBM E-score": 0.00261}
{"sequence": "AAAACAGT", "PBM E-score": 0.118}
{"sequence": "ACAGCCCG", "PBM E-score": -0.227}
{"sequence": "ATAGTCTC", "PBM E-score": 0.138}
{"sequence": "AGTACGGA", "PBM E-score": 0.224}
{"sequence": "ACTCAGAC", "PBM E-score": -0.0991}
{"sequence": "CAATAAAA", "PBM E-score": -0.0856}
{"sequence": "CCGGCTGC", "PBM E-score": -0.14}
{"sequence": "AATCTCTG", "PBM E-score": -0.0552}
{"sequence": "AGAGAGAA", "PBM E-score": -0.135}
{"sequence": "AAAAGGCC", "PBM E-score": 0.0371}
{"sequence": "CTGATGGA", "PBM E-score": -0.301}
{"sequence": "GAGTCAGA", "PBM E-score": -0.00838}
{"sequence": "AACTCCGA", "PBM E-score": -0.173}
{"sequence": "ACTAACAG", "PBM E-score": 0.00472}
{"sequence": "CCAATTAA", "PBM E-score": -0.0911}
{"sequence": "AAAAACGG", "PBM E-score": 0.117}
{"sequence": "AGTGTTAA", "PBM E-score": -0.0323}
{"sequence": "AGAGGAAA", "PBM E-score": -0.0639}
{"sequence": "CTGTAGAA", "PBM E-score": -0.122}
{"sequence": "AGGACAAT", "PBM E-score": -0.219}
{"sequence": "ATGCATTA", "PBM E-score": -0.0422}
{"sequence": "GATAGCAA", "PBM E-score": -0.0335}
{"sequence": "ACTGAGCC", "PBM E-score": -0.0811}
{"sequence": "CCGTTATA", "PBM E-score": 0.0813}
{"sequence": "ACACAGAG", "PBM E-score": -0.201}
{"sequence": "AGGGACCT", "PBM E-score": -0.0442}
{"sequence": "ATGATCTG", "PBM E-score": -0.126}
{"sequence": "AAATACAT", "PBM E-score": -0.18}
{"sequence": "ACAACTGC", "PBM E-score": -0.145}
{"sequence": "CCAAAGTA", "PBM E-score": -0.149}
{"sequence": "AGGCTGAG", "PBM E-score": -0.334}
{"sequence": "CAAACCAC", "PBM E-score": -0.0352}
{"sequence": "ACATCAAT", "PBM E-score": 0.0394}
{"sequence": "GAAGTTAA", "PBM E-score": 0.0808}
{"sequence": "CAACATCC", "PBM E-score": -0.118}
{"sequence": "CGACAAGC", "PBM E-score": 0.0834}
{"sequence": "CGCTGTGC", "PBM E-score": -0.112}
{"sequence": "CCGGGAGC", "PBM E-score": 0.0964}
